The source of these data is PubChem BioAssay AID463173 (ICCB-Longwood Screening Facility, Harvard Medical School, 2010).

About 1,700 (3.3%) of roughly 52,000 compounds were called active. No stated cut-off is given here; in the data, active means survival mostly below about 52% (no sharp cut-off); inactive means mostly above about 56%. The list shows a part of the results.

In the assay the test system is Wild type. Nature of the assay: S. aureus survival, RN4220 and DeltatarO strains – OD600, teichoic acid synthesis inhibitors, primary screen (AID 463173). To be noted: S. aureus RN4220 wild type/DeltatarO growth, OD600, 18 h, stronger effect = lower value, screened at 18.75 µg/mL (by protocol).
Take `Cc1ccc(C)c(NC(=O)Cn2nc(C)c3nn(-c4ccc(Cl)cc4)c(C)c3c2=O)c1`: the survival was inactive: 101%.

Turning to `CCOc1ccc(CCNC(=O)c2cc3c(=O)n(CC)c4ccccc4c3s2)cc1OCC`, the survival was inactive: 75%. With `CCc1cccc(NC(=O)CSc2nncn3c2cc2sccc23)c1` the figure was inactive: 73%; with `CC(C)CCNC(=O)c1ccc2c(c1)NC(=O)C(C(C)C)N2` (centres undefined), inactive: 68%; with `Cc1c(C)n(Cc2ccccc2)c2ccc(C(=O)N3CCN(c4ccc(F)cc4)CC3)cc12`, inactive: 69%. Then `CCN(Cc1ccccc1)C(=O)c1cc(-c2ccccc2)n[nH]1`, with inactive: 65%. Then `Cc1ccc(Cl)cc1N1CCN(C(=O)CN2C(=O)COc3ccc(S(=O)(=O)N4CCCCCC4)cc32)CC1`, with inactive: 74%; and `COc1ccc(S(=O)(=O)NCCSc2nnnn2-c2ccccc2)cc1OC`, with inactive: 138%. As for `Cc1ccccc1Nc1c(-c2cccc(Cl)c2)nc2ncccn12`, the survival was inactive: 83%. With `Cc1ccc(NC(=O)N2CCCC2C(=O)NCC2CCCCC2)cc1` (centres undefined) the figure was inactive: 110%; with `Cc1oc2ccc(O)c(CN3CCOCC3)c2c1C(=O)Nc1cccc(C(F)(F)F)c1`, inactive: 88%. Then `Cn1cnc(S(=O)(=O)N2CCCC(C(=O)NCc3ccc(Cl)cc3)C2)c1` (centres undefined), with inactive: 99%; and `CCN(CC)S(=O)(=O)c1ccc2c(c1)N(CC(=O)N1CCN(c3ccc(OC)cc3)CC1)C(=O)CO2`, with inactive: 60%; and `COc1ccc(-n2c(SCC(N)=O)nc3c(oc4ccccc43)c2=O)cc1`, with inactive: 85%.

In the case of `Cc1ccc(-c2onc(C)c2C)cc1S(=O)(=O)N1CCOc2ccc(Cl)cc21`, the survival is inactive: 84%. Turning to `c1ccc(CN2CCN(CCN3CCCCC3)CC2)cc1`, the survival is inactive: 107%. With `COc1cc(/C=C(\C#N)c2nc3ccccc3[nH]2)ccc1OCc1ccccc1F` the figure was inactive: 65%; with `CC(C)CN1CCc2nc(Nc3ccc(F)cc3F)ncc2C1`, inactive: 73%. With `CC(=O)N1CCc2c(sc3c2c(=O)n(Cc2ccccc2)c(=O)n3Cc2ccccc2F)C1` the figure was inactive: 110%. With `O=C(Cc1cccs1)Nc1c(C(=O)Nc2ccc(F)cc2)oc2ccccc12` the figure was inactive: 110%; with `CCC(Sc1nc(-c2ccc(F)cc2)nc2c1Cc1c(CO)cnc(C)c1O2)C(=O)Nc1ccc(F)cc1` (centres undefined), inactive: 85%. In the case of `COc1c(Cl)cc(C(=O)N(Cc2ccccc2F)C2CCS(=O)(=O)C2)cc1Cl` (centres undefined), the survival was inactive: 86%. With `COc1ccc(CCC(=O)NCc2ccc3c(c2)CCN3C(=O)c2ccccc2)cc1` the figure was inactive: 71%; with `CCS(=O)(=O)N1CCc2cc(C(=O)N3CCN(c4ccccc4OC)CC3)ccc21`, inactive: 108%.
